Reference: the supplement of paper PMC11417369
The other results are listed elsewhere or left out.

The sequences below were run on PfSIP2 AP2 domain 1 (GST-tagged) (assay: gcPBM binding intensity (ln(normalized median fluorescence intensity)); higher = stronger DNA binding).
Summary of the method: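 DNA-binding domains from P. falciparum, fused to GST and produced in E. coli, were put on an Agilent 4 × 180k double-stranded probe array for 1 h in 1× PBS holding 1% milk, 0.2 mg/ml BSA, 0.5% salmon testes DNA and 0.03% Triton X-100. Probes were primer-extended, 36 bp long and drawn from intergenic genomic regions, with negative controls included. After Alexa488 anti-GST antibody detection and a 488 nm scan, binding intensity was set as the highest Masliner-normalised natural-log median intensity across replicate spots of either probe orientation.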

Row | Sequence | gcPBM binding intensity (ln)
1 | CTTTAATATATTTAAGTGCAAAACTAATATGTAAAG | 8.54
2 | TATATATTATATATATGTACTTATTCATATATATAA [XGTACX_site3860] | 7.22
3 | AAAGAAAAAGAAAAAGAAAAAATAAAATAAAATAAA [CACACA_negctrl_site872] | 6.64
4 | TATTTAAAAACAAAAAGTACTAATATATATTTATAC [XGTACX_site1422] | 6.96
5 | GACTGAACAACATAATGTACATTTATAAGTATATAT [XGTACX_site3813] | 7.15
6 | AGTAGTATGGAGAAAAGTACATAGTATCTGATAACC [XGTACX_site2040] | 7.12
7 | TTTTCTATATAGTGTTGTACATTATTGTGTAAAAAT [XGTACX_site3223] | 7.11
8 | ATAAAATTGGAGCAAACACACAAGGTTGAAATTAAC [CACACA_site506] | 7.09
9 | ATATTTTATACTTGCACACAAAATATATTAAAATGG [CACACA_site5139] | 7.33
10 | TTATGTTGTAAATGCACACATACAAATACATATACA [CACACA_site1368] | 7.35
11 | TACAATATAAAATACACACGCACACCGAAAAAAAAA [CACACA_site5865] | 7.24
12 | AAGAAAAAAAAGATAATAATAATAATAATAAAATGA [TGCATGCA_negctrl_site398] | 6.82
13 | ATTTATTAAAAGAAATGTACAGAAAATGTTTGGAAT [XGTACX_site7187] | 7.21
14 | ATTTAATATCACAATATATTTTTTACCCTTATCAGC [CACACA_negctrl_site491] | 6.95
15 | TATATGGTATGTATTACACACATATCACATATATAT [CACACA_site3045] | 6.96
16 | TGGTAAATTGAGAATCGTACATTAAAAAACATAAAA [XGTACX_site3253] | 7.05
17 | GGAATGGTACATGATACACACACGCACATATAAATA [CACACA_site7581] | 7.04
18 | ATAAAACAAGCAAATCGTACAAAAGGATAATATATA [XGTACX_site5592] | 6.9
19 | ATGTATGGTTTATATGTTCATTTGTTCACCTATTTA [CACACA_negctrl_site1533] | 6.89
20 | AAAAAAAAAAAAAACACACACACACCCATACCCATA [CACACA_site5577] | 7.41
21 | ATATATATTTAAGAGGGTACAAAAATTTATGAGCAT [XGTACX_site6156] | 7.18
22 | TTAGGTAGAAAAAAGACACACACATTATATATATAT [CACACA_site8016] | 8.8
23 | TCTTTGGTAATATATATGTATAAATATAAATATATA [CACACA_negctrl_site1566] | 6.99

Row | Sequence | gcPBM binding intensity (ln)
24 | ATATATATATATGTTAGTACATAACAAGTGTGCATA [XGTACX_site1527] | 9.09
25 | GATAAAATGAGACCAGTGCATTATTAGTTGTACACC | 8.33
26 | TTTTTTGCTAAGTGTACACAAATGTTTATTAATTTA [CACACA_site5859] | 7.48
27 | TGTGCTTATCCTAACACACACAACATATAAGAAAAA [CACACA_site3319] | 7.19
28 | AAAAAATAAAAAATATGTACACATTCAAAATTTTAC [XGTACX_site8479] | 6.91
29 | TATACATATTTATACACACACACATATATTTATATA [CACACA_site6727] | 7.11
30 | AAAAAGAAAAAAAACACACACAAATATAAATAAATA [CACACA_site1183] | 6.92
31 | ATATATATATATATATGTACATATTACATTACTTAT [XGTACX_site749] | 9.53
32 | CAAATACACCAACACACACACACAAAAAAAAAAAAA [CACACA_site514] | 7.14
33 | TAAGTACGACTTGACACACATACACATATATATATA [CACACA_site1286] | 9.3
34 | ATTACCAACAGATCTTGTACATATTAAAGCATCTTA [XGTACX_site2361] | 6.99
35 | ATATACAAAGAAGCAGTGCATATTTTCTTATTTATG [GTGCAC_site9567] | 8.02
36 | TGAAAGAATAGAATGAGTACTAATTTAAATTACACT [XGTACX_site1120] | 6.72
37 | TTGATTTCATTTTAAGTGCATAACTAATATTATATA [GTGCAC_site9713] | 8.07
38 | TTCTTTATATATTTTTGTACATATTTATTTTTAGAG [XGTACX_site6757] | 7.26
39 | ACTATATATATAAGTGCATGTTCATTATACCTAAAG [TGCATGCA_site696] | 9
40 | AAAAATTCATTTTTATGTACGTACAAATTCTTCGTT [XGTACX_site2471] | 7.33
41 | TTTTAAAAAAATATAATACACACCAAAAATATGCAC [CACACA_site2131] | 9.9
42 | AGTAAATTATATATCTGTACATATATATATGTGTAT [XGTACX_site5519] | 7.15
43 | CTCACAAATGAATACACACAAACATATATATTTATA [CACACA_site1620] | 7.11
44 | AAAAAAATATAAATACGTACATATATATATATATAT [XGTACX_site432] | 9.47
45 | CTATTCTATTTTTATTGTACATATATATAATTTGAA [XGTACX_site389] | 7.37
46 | TGGAATAATACGCGTACACACATATAAATATTAATA [CACACA_site6211] | 7.52

Row | Sequence | gcPBM binding intensity (ln)
47 | ACACATGAATATTGTAGTACGGCAATTAATATAATA [XGTACX_site4589] | 6.82
48 | ATATAATGGCTAAATAGTACAATATAATATTTTTTA [XGTACX_site8922] | 6.89
49 | AGAAAGGAAAAAACCTCACACATGCTTTTAATAGTA [CACACA_site4602] | 6.77
50 | TTTTTTATATTGTGATGTACAAATTTTAAAATGTAG [XGTACX_site1875] | 7.27
51 | AAATTCGTTATAAAAACATGCAACGATCAACATTGT [TGCATGCA_site844] | 6.81
52 | TTACTCTTTATATAATGTACATATATATATATATTA [XGTACX_site2624] | 7.45
53 | GTGTGGAGTTACAAAGAGGAGAACCTCACAGTAATC [CACACA_negctrl_site527] | 6.91
54 | ATATATATATATATAATACACACTTATGAAATGTCT [CACACA_site1827] | 9.47
55 | TTACACATATTTTTAATTATTCTGAATTCAAAAAAA [CACACA_negctrl_site1706] | 6.91
56 | ATAATCATAAAATAAACACACATATATAAATATATT [CACACA_site276] | 6.95
57 | GTAATATTAAAATATACACACATAGAATATATATAT [CACACA_site4391] | 8.8
58 | TGAAAAAAGAAAAATACACACATATAACATAATATA [CACACA_site7126] | 6.67
59 | AATCTATATTAATACACACACACATATATTTATATA [CACACA_site7732] | 7.25
60 | TTTATTTTGACAGATTGTACACTTTATACATGTTTT [XGTACX_site2356] | 7.07
61 | GTATATATTTCCAGAAGTACTTATTTTTATGTATGT [XGTACX_site4079] | 7.26
62 | TTATATTTATTGATATGTACATATTATAATTAATTA [XGTACX_site586] | 7.22
63 | TGATTACATATGATGTGTACCTAATTTTGTTTACAC [XGTACX_site7032] | 6.88
64 | AAAAATGCCAGAAAACGTACTCGGATTTTCTAATAT [XGTACX_site6552] | 6.75
65 | AAAACACGCGGACACACACACACACCCACCCATATA [CACACA_site8688] | 7.03
66 | TTTTAATATTTTGCCTGTACATAAAAGTGAGAAGAT [XGTACX_site2503] | 7.73
67 | TATAAAGGTTGGTACTGTACAATATAAGAAAAAAAA [XGTACX_site435] | 7.03
68 | AAATAGTTCATAAAAAGTACAAAATTTTTATCCGTA [XGTACX_site2796] | 6.83
69 | ATCATTCATTTAACAACACACAACATATTTATCATA [CACACA_site1041] | 7.14

Row | Sequence | gcPBM binding intensity (ln)
70 | TATATATTATATAAGAGTACATATAATTATAGTTTT [XGTACX_site5039] | 6.93
71 | AGGCTATAATACCATACACACATTTATAAAATAACA [CACACA_site6990] | 7.16
72 | TAAAAATTTGATCAAACACACGTTGCATAAATTATA [CACACA_site6040] | 7.04
73 | TTTTTGTAAACCTACTTCATAATTATTTATATCTAT [XGTACX_negctrl_site599] | 6.98
74 | ACATATATTTATATATGTACATATGATATATACATA [XGTACX_site6122] | 7.12
75 | CTTTTGTATATTATATGTACACACAATAAGTTAATA [XGTACX_site1684] | 7.25
76 | TACATATAAACAATAACACACACCTAGGTACATGGA [CACACA_site8178] | 6.86
77 | AATTAACAAAAACACACACACACACCCACAAAAAAA [CACACA_site517] | 7.19
78 | ATTGTTAAATATAATACACACGTTTTTAAAAATATA [CACACA_site5239] | 7.17
79 | AAAAAAAAAAAACATACACACACATATATATATATA [CACACA_site8452] | 9.32
80 | TAAAAATAAATAAATACATGCACCAAAAATAAATTT [TGCATGCA_site801] | 10.2
81 | ATTGCCATTGTTAATGCATGTAACAATTCAGCTCAT [TGCATGCA_site56] | 6.96
82 | AAAATTATTTAGTAAGTGCAAAAAAAAAAAAAAAAA | 8.21
83 | AATTTGATTATAAATTGTACATATATATATTAAAAG [XGTACX_site5461] | 7.25
84 | AAGAAAAAAAAAAAAACACACATATATTTATTTATA [CACACA_site7042] | 6.78
85 | TATACACATAGACACACACACAAAAAAAAAAAAAAA [CACACA_site6338] | 7.01
86 | GAAAGAAAAAATGATGAATAGAGATCAAATCTATAT [XGTACX_negctrl_site28] | 6.84
87 | TTGAGAAAAATTAATGGTACACATATTATAAGTATA [XGTACX_site6539] | 7.09
88 | TGTATAACATTTAGGTGTACAATTATATATAATATA [XGTACX_site8131] | 7.18
89 | TAATTGTACACATGCACACACAAATATTATAGATGT [CACACA_site6528] | 7.64
